Source: PubChem BioAssay AID360 (National Center for Advancing Translational Sciences (NCATS), 2006)
Screen size: about 48,000 compounds; about 550 (1.1%) were called active. Another 4% or so got no clear call; they are omitted. Cut-off read from the data, not from the text of the source: active = potency below about 15 µM; inconclusive = mostly about 16 µM to 33 µM; inactive = weaker than that. Some of the results follow.

target: Lysosomal acid glucosylceramidase (Homo sapiens) (UniProt P04062); assay: Glucocerebrosidase; conditions: purified enzyme, resorufin glucoside fluorescence (screen aimed at inhibitors), 20 min;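 note: the screen sought inhibitors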
Sequence of UniProt P04062 (P04062 whole entry, looked up): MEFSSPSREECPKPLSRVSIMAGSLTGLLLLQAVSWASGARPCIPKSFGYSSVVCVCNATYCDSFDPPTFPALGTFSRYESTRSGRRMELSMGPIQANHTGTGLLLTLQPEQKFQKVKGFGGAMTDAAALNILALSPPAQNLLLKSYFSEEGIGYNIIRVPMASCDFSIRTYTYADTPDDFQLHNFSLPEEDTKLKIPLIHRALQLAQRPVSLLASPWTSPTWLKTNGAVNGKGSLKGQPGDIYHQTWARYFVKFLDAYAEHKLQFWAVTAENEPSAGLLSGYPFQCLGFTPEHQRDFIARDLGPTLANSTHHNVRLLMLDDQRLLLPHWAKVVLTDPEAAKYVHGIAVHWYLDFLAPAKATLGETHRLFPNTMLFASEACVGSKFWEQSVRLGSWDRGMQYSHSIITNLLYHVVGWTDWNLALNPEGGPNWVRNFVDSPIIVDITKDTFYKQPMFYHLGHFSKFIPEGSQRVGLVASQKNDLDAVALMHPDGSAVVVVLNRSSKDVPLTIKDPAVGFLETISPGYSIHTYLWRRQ
Summary of the method: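 Normal human glucocerebrosidase (0.2 nM final) was assayed with resorufin β-D-glucopyranoside (30 uM final) in 50mM citric acid/KH2PO4, 10mM sodium taurocholate, 0.01% tween-20, pH 5.9. Compounds were titrated; fluorescence (Ex 548, Em 600) read after 20 min at RT.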
Potency is the fitted concentration of half-maximal effect.

Potency, inactive:
Cc1cc2nc(NC3=NCN(CCCN4CCOCC4)CN3)nc(C)c2cc1C > 76.9 µM
O=C(NCC1CCCO1)C1CCN(c2ccc(S(=O)(=O)N3CCCC3)cc2)CC1 (stereo not given) > 76.9 µM
O=C(CCn1c(=O)sc2ccccc21)NCc1cccs1 > 76.9 µM
CCn1ncc(CN2CCN(C(=O)Nc3ccccc3C(=O)OC)CC2)c1C > 76.9 µM
Cc1ccc(C)c(-n2c(SCC(=O)N3CCCC3)nnc2-c2ccccn2)c1 > 76.9 µM
Cc1ccccc1-c1nc(CN2CCC(C(=O)NCCCN3CCCC3)CC2)c(C)o1 > 76.9 µM
FC(F)(F)c1cc(-c2ccccc2)nc(N2CCCCCC2)n1 > 76.9 µM
C=CCn1c(SCC(=O)Nc2cc(C)c(Cl)cc2OC)nnc1-c1ccco1 > 76.9 µM
COC1(OC)N=C(N)C2(C#N)C(c3cccc(Oc4ccccc4)c3)C12C#N (stereo not given) > 76.9 µM
O=C(NCC1CCCO1)Nc1cccc(Cl)c1 (stereo not given) > 76.9 µM
CCOc1ccc(OCC)c(NC(=O)CN2CCN(c3cccc(C)c3)CC2)c1 > 76.9 µM
Cc1nc2c(C(=O)N3CCN(c4ccccn4)CC3)cnn2c(C)c1Cc1cccc(Cl)c1 > 76.9 µM
O=c1oc2ccccc2n1Cn1c(=O)oc2ccccc21 > 76.9 µM
CCC(C)C(NCc1cccc(C)c1)C(=O)O (stereo not given) > 76.9 µM
COc1ccc(C2C(C(N)=O)=C(C)Nc3ncnn32)cc1 (stereo not given) > 76.9 µM
CCOc1ccc(NC2=NCCC(=O)N2Cc2cccs2)cc1 > 76.9 µM
CC(=O)NCCn1c(SCC#N)nc2ccccc2c1=O > 76.9 µM
CCN(CC)CCCNc1oc(-c2ccc(OC)c(OC)c2)nc1C#N > 76.9 µM
O=C1NC(=O)[C@@H]2C3c4ccccc4C=CN3[C@H](C(=O)c3cccs3)[C@H]12 (stereo not given in full) > 76.9 µM
CC(c1ccccc1F)n1cc(C(=O)NCCc2ccco2)nn1 (stereo not given) > 76.9 µM
CCOC(=O)c1c(-c2ccc(C)o2)csc1NC(=O)CSc1nncs1 > 76.9 µM
CCN(CC(=O)Nc1c(C(=O)OC)[nH]c2ccc(C)cc12)c1ccc2c(c1)OCO2 > 76.9 µM
CCOC(=O)C(C)n1cnc2c(cnn2-c2ccc(Cl)cc2)c1=O (stereo not given) > 76.9 µM
Clc1ccc(OCc2nn3c(C4CCCCC4)nnc3s2)cc1 > 76.9 µM
CCOC(=O)N1CCC(NC(=O)C2CCN(S(=O)(=O)N3CCC(C)CC3)CC2)CC1 > 76.9 µM
O=C(OCCN1C(=O)c2ccccc2C1=O)c1cc(S(=O)(=O)N2CCOCC2)ccc1F > 76.9 µM
CC1(C)CC(=O)c2cc(OCC(=O)NCCCN3CCN(c4ccc(F)cc4)CC3)ccc2O1 > 76.9 µM
COc1cc(C2C(C(C)=O)=C(O)C(=O)N2CCc2ccc(OC)c(OC)c2)ccc1O (stereo not given) > 76.9 µM
CCNC(=O)c1nc[nH]c1C(=O)NCC > 76.9 µM
CCc1nc2sc3c(c2c(=O)n1N)CCC3 > 76.9 µM
Cc1cccc2cc(C#N)c(N3CCCC3)nc12 > 76.9 µM
CC(C)NC(=O)C1CCN(Cc2cnn(-c3ccccc3)c2-n2cccc2)CC1 > 76.9 µM
Cc1cc2ncn(S(=O)(=O)N3CCOCC3)c2cc1C > 76.9 µM
CS(=O)(=O)N(CC(=O)NCc1ccccn1)c1ccc2c(c1)OCCO2 > 76.9 µM
CCCC(=O)N1CCN(S(=O)(=O)c2cc(Cl)ccc2OC)CC1 > 76.9 µM
CCN(CC)c1nc2n(c(=S)n1)CCS2 > 76.9 µM
O=C(CN1CCC(C(=O)c2ccc3c(c2)OCCO3)CC1)NC1CCCC1 > 76.9 µM
Cc1ccccc1Nc1nn2c(=O)c3ccccc3nc2s1 > 76.9 µM
Cc1ccc(-n2c(SCc3ccc(C#N)cc3)nnc2-c2ccccn2)cc1 > 76.9 µM
O=C(NC1CCCCC1NC(=O)c1ccco1)c1ccco1 (stereo not given) > 76.9 µM
NC(=O)C1(N2CCCCC2)CCN(CC(=O)Nc2ccccc2-c2ccccc2)CC1 > 76.9 µM
CCOC(=O)CC(=O)CSc1nc2sc(C)cc2c(=O)n1Cc1ccco1 > 76.9 µM
COc1ccc(CN(C)CCc2ccccn2)cc1OC > 76.9 µM
CC(C)CNC(=O)C1C2C=CC(C2)C1C(=O)O (stereo not given) > 76.9 µM
Cc1cccc(N=C2NC(=O)CS2)c1C > 76.9 µM
Cc1ccc(S(=O)(=O)NCCC(=O)N2CCN(Cc3ccccc3)CC2)cc1 > 76.9 µM
CN(CCc1ccccn1)S(=O)(=O)c1ccc2c3c(cccc13)C(=O)N2 > 76.9 µM
COC(=O)C1=C(C)Nc2ncnn2C1c1ccccn1 (stereo not given) > 76.9 µM
O=C(O)CCCn1c(=O)[nH]c2ccccc2c1=O > 76.9 µM
O=c1[nH]c(Cc2ccccc2)nc2c1oc1ccccc12 > 76.9 µM
CCNC(=O)CC1C(=O)N(c2ccc(F)cc2)C(=O)N1Cc1ccc(OC)cc1 (stereo not given) > 76.9 µM
C=CCOc1c(Br)cc(CNn2nnnc2N)cc1OC > 76.9 µM
Cc1cc2cc(CN(Cc3ccc4c(c3)OCO4)C(=O)c3cnccn3)c3nnnn3c2cc1C > 76.9 µM
Cc1cc(C)nc(NC(=O)NS(=O)(=O)Nc2ccc(Br)cn2)n1 > 76.9 µM
O=C(CSc1nnc(Cc2ccccc2)o1)N1CCOCC1 > 76.9 µM
O=C(COc1ccccc1)n1nc(-c2ccc(Cl)cc2)nc1NCc1ccco1 > 76.9 µM
CC1Cc2ccccc2N1S(=O)(=O)c1cnc[nH]1 (stereo not given) > 76.9 µM
CC(=O)c1cnc(Nc2nc(C)c3cc(C)ccc3n2)nc1C > 76.9 µM
CCCC(c1nnnn1C1CCCCC1)N1CCN(C2CCCC2)CC1 (stereo not given) > 76.9 µM
COC(=O)c1ccccc1N=C(SC)N(C)C > 76.9 µM
CCC(C)NC(=O)C1CCCN(C(=O)Nc2ccc(F)cc2)C1 (stereo not given) > 76.9 µM
O=C(O)c1cccc(Cn2cc(Br)cn2)c1 > 76.9 µM
CCc1ccccc1NC(=O)Cn1nnc(-c2cccs2)n1 > 76.9 µM
C=CCn1c(SCC(=O)Nc2ccc(C(=O)OCC)cc2)nnc1-c1sc(N)nc1C > 76.9 µM
Cc1ccc(-n2ncc3c(=O)n(CC(=O)NC4CCCCC4)cnc32)cc1C > 76.9 µM
COc1cc(Cl)cc(C2NC(=O)NC(C)=C2C(=O)NCc2ccccc2)c1O (stereo not given) > 76.9 µM
Cn1c(=O)c2c(nc(N3CCN(c4ccccc4)CC3)n2CCCc2ccccc2)n(C)c1=O > 76.9 µM
Cc1ccc(NC(=O)CNS(=O)(=O)c2cccs2)cc1F > 76.9 µM
COC(=O)c1ccccc1NC(=O)NCc1ccco1 > 76.9 µM
COc1cc2[nH]c(=S)n(CCN3CCOCC3)c(=O)c2cc1OC > 76.9 µM
Cc1ccc(S(=O)(=O)N2CCCC2C(=O)NCc2ccco2)cc1 (stereo not given) > 76.9 µM
O=C(Cn1c(=O)oc2cc(S(=O)(=O)N3CCCC3)ccc21)Nc1cccc(C(F)(F)F)c1 > 76.9 µM
CC(=O)c1cccc(NC(=O)c2ccco2)c1 > 76.9 µM
COC(=O)c1ccccc1NC(=O)c1cc2ncc(Br)cn2n1 > 76.9 µM
COC(=O)c1ccc(C(=O)OC)c(NC(=O)Nc2ccc3c(c2)OCO3)c1 > 76.9 µM
C=C(C)CSc1nnc(-c2cc(OC)c(OC)c(OC)c2)n1N > 76.9 µM
Cn1cccc1Cc1nnc(SCC(=O)Nc2nc3ccccc3s2)n1CCc1ccccc1 > 76.9 µM
COc1cc2c(cc1OC)C(COc1ccc(F)cc1)N(C(=O)c1ccco1)CC2 (stereo not given) > 76.9 µM
CCS(=O)(=O)Nc1c(C(=O)OC)[nH]c2ccccc12 > 76.9 µM
CCOC(=O)CNC(=O)C1c2cc(OC)c(OC)cc2C(=O)N(C)C1c1ccccc1F (stereo not given) > 76.9 µM
Cc1ccccc1NS(=O)(=O)c1ccc(OCC(=O)N2CCCC2)cc1 > 76.9 µM
COC(=O)c1ccccc1NS(=O)(=O)c1ccc2c3c(cccc13)C(=O)N2 > 76.9 µM
COC(=O)c1c(NC(=O)Cc2cccs2)sc(C(=O)N2CCCCC2)c1C > 76.9 µM
Cc1c(C(=O)NCc2ccccc2)oc2ccc(S(=O)(=O)N3CCC4(CC3)OCCO4)cc12 > 76.9 µM
COc1ccc(NC(=O)N2c3ccccc3CC2C)cc1OC (stereo not given) > 76.9 µM
O=C(CCSCCc1ccccn1)Nc1ccccn1 > 76.9 µM
COc1ccc(C2C(C(=O)NCCN(C)C)c3cc(OC)c(OC)cc3C(=O)N2C)cc1OC (stereo not given) > 76.9 µM
COC(=O)c1cc(-c2ccc(Br)cc2)n[nH]1 > 76.9 µM
Nc1cc(C(=O)OCC(=O)N2CCCC2)ccc1Cl > 76.9 µM
CCOC(=O)C1=C(C)NC(C)=C(C(=O)OCC)C1C(=O)OCC(=O)N1CCCCC1CC (stereo not given) > 76.9 µM
